Assay results reported in the supplement of paper PMC10126150.
Sequences with one replicate were seen in a single cluster, so their values are uncertain.
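Also: ATP exposure 15 min at 22 °C before imaging.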

What follows are sequences tested on ATP (assay: switch fluorescence ratio, 500 uM ATP over buffer (Cy3 cluster intensity, sum of 5 cycles each) (fold (ratio)); higher = stronger signal-on switching upon ATP binding; sequences stand for … in TCGTCGGCAGCGTCAGATGTGTATAAGAGACAGTTTTTTTTTTTTTTTTTTTTTTTTT…TC). Details: aptamer strand: ATP DNA aptamer (quencher-CACCTGGGGGAGTATTGCGGAGGAAGG + anchor), 100 nM annealed; ATP concentration: 500 uM; one replicate.
Summary of the method: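 Between each of five buffer/ATP cycles, the flow-cell was stripped with NaOH and re-annealed. Each cycle imaged Cy3-labelled switching-strand clusters, annealed to 100 nM quencher-labelled ATP aptamer on a modified Illumina MiSeq flow-cell, first in selection buffer and then after 15 min with 500 uM ATP at 22 °C. The fluorescence ratio is summed target-cycle over summed buffer-cycle Cy3 intensity per cluster, averaged per switch-domain sequence, with clusters outside 100-1000 RFU excluded.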
CCGACTGTGT gave a switch fluorescence ratio of 1.24. In the case of CCGAGACGCC, the switch fluorescence ratio is reported as 1.34. Work on CCGAGCGAAG yielded a switch fluorescence ratio of 2.75. In the case of CCGAGGATTC, the switch fluorescence ratio is reported as 1.47. With CCGAGGGGCA the switch fluorescence ratio was 1.74. Sequence CCGAGGGTGT has a switch fluorescence ratio of 1.05. CCGAGGTAGT was tested, and the switch fluorescence ratio was 1.04. Sequence CCGAGTGTAG has a switch fluorescence ratio of 1.06. CCGAGTTCAC showed a switch fluorescence ratio of 1.08. In the case of CCGATAGGGT, the switch fluorescence ratio is reported as 0.974. With CCGATCAGGT the switch fluorescence ratio was 0.998. Work on CCGATGGCAG yielded a switch fluorescence ratio of 4.39. In the case of CCGATGTGAG, the switch fluorescence ratio is reported as 1.21. CCGATTAAAA gave a switch fluorescence ratio of 1.08. With CCGATTAGTC the switch fluorescence ratio was 1.16. CCGATTCAAA was tested, and the switch fluorescence ratio was 1.95. With CCGATTTTAA the switch fluorescence ratio was 1.31. CCGCACTGTA showed a switch fluorescence ratio of 2.01. In the case of CCGCATTTAA, the switch fluorescence ratio is reported as 4.2. Sequence CCGCCGGGAA has a switch fluorescence ratio of 1.5. For CCGCCGTGCC, the switch fluorescence ratio was 2.17. In the case of CCGCCTCGAG, the switch fluorescence ratio is reported as 1.39. For CCGCGAGGCT, the switch fluorescence ratio was 3.72. In the case of CCGCGTCTTC, the switch fluorescence ratio is reported as 1.15. CCGCGTGCAG showed a switch fluorescence ratio of 1.05. CCGCGTGTCG gave a switch fluorescence ratio of 1.02. Sequence CCGCGTTATT has a switch fluorescence ratio of 2.34. With CCGCTAATCA the switch fluorescence ratio was 4.31. CCGCTATAAA was tested, and the switch fluorescence ratio was 6.09. For CCGCTATCGG, the switch fluorescence ratio was 1.61. Sequence CCGCTGCTTT has a switch fluorescence ratio of 2.13. In the case of CCGCTTATGA, the switch fluorescence ratio is reported as 4.79. CCGCTTCGTC was tested, and the switch fluorescence ratio was 1.84. Work on CCGCTTGGGA yielded a switch fluorescence ratio of 1.18. Sequence CCGGAACCAT has a switch fluorescence ratio of 1.14. Sequence CCGGAATTTC has a switch fluorescence ratio of 2.57. CCGGAGGAGT showed a switch fluorescence ratio of 1.19. CCGGAGGCGG showed a switch fluorescence ratio of 1.15. Sequence CCGGAGTTTA has a switch fluorescence ratio of 2.92. Work on CCGGATCCTT yielded a switch fluorescence ratio of 1.03. Sequence CCGGATTTGT has a switch fluorescence ratio of 1.05. For CCGGCCACCA, the switch fluorescence ratio was 1.16. CCGGCCAGC was tested, and the switch fluorescence ratio was 1.4. CCGGCCCGGT was tested, and the switch fluorescence ratio was 1.05. CCGGCGATCG was tested, and the switch fluorescence ratio was 1.01. CCGGCGTCGT gave a switch fluorescence ratio of 1.04. Sequence CCGGCTAGGT has a switch fluorescence ratio of 1.03. In the case of CCGGGACTGA, the switch fluorescence ratio is reported as 0.991. In the case of CCGGGCCCAG, the switch fluorescence ratio is reported as 1.28. With CCGGGCGATT the switch fluorescence ratio was 1.01. In the case of CCGGGCGCGT, the switch fluorescence ratio is reported as 1.85. CCGGGCGGAG showed a switch fluorescence ratio of 1.06. With CCGGGGCATC the switch fluorescence ratio was 5.2. CCGGGGGAGT was tested, and the switch fluorescence ratio was 1.01. CCGGGGTAGC was tested, and the switch fluorescence ratio was 1.19. Work on CCGGGGTCAG yielded a switch fluorescence ratio of 1.04. CCGGGTTCAT showed a switch fluorescence ratio of 1.04. For CCGGGTTG, the switch fluorescence ratio was 1.07. CCGGTAGAAA showed a switch fluorescence ratio of 1.05. For CCGGTGCCTG, the switch fluorescence ratio was 0.984. With CCGGTGGGTT the switch fluorescence ratio was 0.991. For CCGGTTCTTT, the switch fluorescence ratio was 1.05. CCGGTTTCTT showed a switch fluorescence ratio of 0.988. With CCGGTTTGGT the switch fluorescence ratio was 0.988. In the case of CCGTACAAAG, the switch fluorescence ratio is reported as 1.17. CCGTAGGCAA was tested, and the switch fluorescence ratio was 4.62. CCGTATGTCT showed a switch fluorescence ratio of 1.09. CCGTCAATG was tested, and the switch fluorescence ratio was 1.83. In the case of CCGTCAGCGT, the switch fluorescence ratio is reported as 1.65. Sequence CCGTCATTTG has a switch fluorescence ratio of 1.09. CCGTCGTTGT was tested, and the switch fluorescence ratio was 0.996. Sequence CCGTCTACGT has a switch fluorescence ratio of 1.05. CCGTCTATAT was tested, and the switch fluorescence ratio was 3.07. With CCGTCTCGCT the switch fluorescence ratio was 1.09. In the case of CCGTGACTAG, the switch fluorescence ratio is reported as 1.02. In the case of CCGTGACTCT, the switch fluorescence ratio is reported as 1.09.
